± gives the standard deviation of the averaged measurements. The full ranking holds about 33,000 sequences; the median of “E-score (dimensionless, -0.5 to 0.5)” is about -0.049, and the highest 2% start at about 0.37. The list shows a part of the results.
Test system: T1, PmTbr T-box DNA-binding domain (GST fusion)
T1 sequence: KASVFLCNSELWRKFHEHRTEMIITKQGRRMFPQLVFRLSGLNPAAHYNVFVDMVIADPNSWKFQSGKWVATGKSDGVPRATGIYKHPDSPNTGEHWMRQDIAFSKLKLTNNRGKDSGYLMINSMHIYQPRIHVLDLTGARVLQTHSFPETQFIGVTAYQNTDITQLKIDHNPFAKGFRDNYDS
Experiment: PBM E-score of 8-mer (E-score (dimensionless, -0.5 to 0.5)); Tbr is Tbrain of the sea star Patiria miniata (Pm) or the sea urchin Strongylocentrotus purpuratus (Sp); higher = stronger binding preference; most listed sequences are background and not binding sites
Conditions: the construct has about 5 more residues each side
Outline: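 GST-fused Tbr T-box DNA-binding domains (the whole T-box plus about five flanking residues) were expressed in BL21 E. coli at 20 °C and purified by glutathione affinity chromatography. Universal Agilent oligonucleotide arrays were made double-stranded by primer extension, incubated with 200 nM protein in PBS (pH 7.5), then scanned and quantified. Every ungapped 8-mer was scored from probe intensities. The Universal PBM Analysis Suite gave each word an enrichment E-score, averaged over duplicate arrays.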

| Sequence | PBM E-score of 8-mer |
| --- | --- |
| ATAGTGTG | 0.393 ± 0.033 |
| GCACCTGC | 0.395 ± 0.018 |
| CACGGATC | -0.107 ± 0.033 |
| ACCTAAAT | 0.0258 ± 0.021 |
| ATCGCAGA | -0.00716 ± 0.061 |
| ACTAAGCG | -0.112 ± 0.027 |
| ACCCTAAC | -0.00485 ± 0.028 |
| GTGAGTGA | 0.181 ± 0.011 |
| GACTACAC | 0.0511 ± 0.078 |
| AATGATAG | -0.0973 ± 0.0096 |
| ATCGTTTG | -0.0168 ± 0.0081 |
| GCCAAAGC | 0.015 ± 0.0095 |
| TACCGACA | 0.0834 ± 0.041 |
| AAATGGTC | -0.257 ± 0.006 |
| AAAGCCAT | -0.176 ± 0.036 |
| CGCATTCC | -0.0478 ± 0.021 |
| ATCTCAGC | 0.08553 ± 0.00043 |
| AACATCAG | -0.183 ± 0.029 |
| CACGGCAA | -0.0259 ± 0.0024 |
| CACAGGGC | -0.00521 ± 0.056 |
| CGTGCCCA | -0.173 ± 0.011 |
| TACGGAAA | -0.139 ± 0.015 |

| Sequence | PBM E-score of 8-mer |
| --- | --- |
| ACGACACT | 0.298 ± 0.0045 |
| AGCCCATC | -0.295 ± 0.052 |
| ACAGTCGC | 0.195 ± 0.0033 |
| CCGACCAA | -0.0414 ± 0.0038 |
| GGGCAGCA | 0.0782 ± 0.015 |
| AGGCTCGA | -0.135 ± 0.02 |
| CCACTCTC | -0.167 ± 0.082 |
| GTTAATAA | 0.0969 ± 0.021 |
| CTGTCGAC | 0.197 ± 0.0091 |
| GCAAGACA | 0.0617 ± 0.013 |
| TGGCCCAA | -0.215 ± 0.0058 |
| CCACGGCG | -0.00334 ± 0.056 |
| CCGGTGGA | -0.231 ± 0.023 |
| ACGAGTGG | 0.0903 ± 0.009 |
| AGTGATTG | -0.00764 ± 0.076 |
| ATTCTAGA | -0.0901 ± 0.038 |
| ACGTCGTA | -0.0172 ± 0.031 |
| AAGGTAGG | -0.104 ± 0.028 |
| AACGGTCT | -0.201 ± 0.043 |
| AAACACTG | 0.0567 ± 0.13 |
| CAGGTCAA | -0.115 ± 0.037 |
| GGACGCCC | -0.228 ± 0.046 |

| Sequence | PBM E-score of 8-mer |
| --- | --- |
| TGGTGAAA | -0.00301 ± 0.06 |
| GAGGAAAA | -0.0833 ± 0.022 |
| CGATCATA | -0.132 ± 0.03 |
| CCAGGTCG | 0.0426 ± 0.013 |
| TAAAACCA | -0.0938 ± 0.019 |
| ATCTGCGC | 0.0547 ± 0.029 |
| ACGCGCTA | 0.327 ± 0.011 |
| GCATGCAA | -0.0272 ± 0.00095 |
| CAGGCAAG | -0.234 ± 0.059 |
| CTTCAGTA | 0.0389 ± 0.053 |
| CTGCAGCA | 0.0651 ± 0.058 |
| CGCCGCCC | -0.0469 ± 0.0038 |
| AGCGAAAG | -0.0461 ± 0.031 |
| ACCGCTAA | 0.128 ± 0.0081 |
| CATTATCA | 0.14 ± 0.011 |
| AGACAATA | -0.0337 ± 0.049 |
| GCGAGAGC | 0.21 ± 0.015 |
| AATTTAAT | -0.259 ± 0.062 |
| AATTTGCT | 0.0793 ± 0.04 |
| CAAATGCA | -0.294 ± 0.014 |
| GCAAATGA | -0.0879 ± 0.066 |
| CGAAAGAG | 0.0571 ± 0.031 |

| Sequence | PBM E-score of 8-mer |
| --- | --- |
| TAGTATGA | -0.104 ± 0.019 |
| CCGAGCCA | -0.0517 ± 0.14 |
| AAGTGATC | 0.0541 ± 0.026 |
| CTCGGTCA | -0.123 ± 0.0027 |
| TCAGGAAA | 0.0619 ± 0.025 |
| ATATTGGA | -0.211 ± 0.031 |
| GATTACGC | -0.0298 ± 0.1 |
| TAGTGGGA | -0.0944 ± 0.019 |
| ACCCGGGG | -0.0323 ± 0.015 |
| AGAGCGAG | -0.162 ± 0.044 |
| CCTACGCC | 0.0658 ± 0.054 |
| ACACACCA | 0.285 ± 0.011 |
| GTAGACGA | -0.228 ± 0.048 |
| ATCACGCC | 0.372 ± 0.017 |
| GCATCATA | 0.0365 ± 0.047 |
| ACATAGGT | 0.243 ± 0.027 |
| GACCAACA | -0.0246 ± 0.058 |
| ATAGAAGA | -0.297 ± 0.1 |
| TCATAGAA | -0.31 ± 0.041 |
| GACGATAC | -0.174 ± 0.059 |

Source: the supplement of paper PMC4166925
